Out of some 340,000 compounds screened, about 12,000 (3.5%) were called active. The shares of active, inactive and inconclusive entries below differ from those in the screen. The call rests on the fitted dose curve; in most records, active means well fitted inhibition curve with a large enough effect; inconclusive means small, poorly fitted or top-dose-only effect, or another doubt; inactive means no such curve, though single readings can be large or run the other way. Potencies of inconclusive entries are left out as doubtful fits.
Experiment: qHTS Assay for Inhibitors of Hepatitis C Virus (HCV)
Settings: Huh7.5.1 HCVcc-Cre (HCVcc is cell-culture hepatitis C virus) infection, luciferase reporter, 44 h; activity change, negative = inhibition: at 41.8 µM (top of the series) unless noted
Procedure, shortened: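 After 44 h co-culture of compound, cells and HCVcc-Cre (~0.5 moi), substrate is added for 15 min at room temperature and luciferase measured over 15 sec. Cells were seeded at 1,000/well and pre-cultured 4 h.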
In the case of `CCOC(=O)c1c(C)[nH]c(C(=O)OC)c1CCC(=O)OC`, the “activity change, negative = inhibition” value is reported as inactive: 10.1%.
In the case of `CNC(=O)c1ccsc1NC(=O)c1ccc(Cl)s1`, the “activity change, negative = inhibition” value is reported as inactive: -17.2%.
With `Cc1cc(C)c2nc(NC(=O)C3CCCO3)sc2c1` (centres undefined) the Potency was inconclusive [inhibitor, partial curve].
In the case of `Cc1ccc(/C(N)=N/OC(=O)c2cc(-c3ccccc3)nc3ccccc23)cc1`, the Potency is reported as inconclusive [inhibitor, full curve, poor fit].
In the case of `CCc1nn(C(C)C(=O)N2CCN(Cc3ccccc3)CC2)c(=O)c2cc3occc3n12` (centres undefined), the Potency is reported as inconclusive [inhibitor, partial curve].
In the case of `Cc1nonc1C1CCCN1Cc1cn[nH]c1-c1ccc(-c2ccccc2)cc1` (centres undefined), the Potency is reported as inconclusive [inhibitor, partial curve].
In the case of `CCC(c1nnc(SCC(=O)NNC(=O)c2ccccc2)n1Cc1ccccc1)N(C)C` (centres undefined), the Potency is reported as inconclusive [inhibitor, single point].
In the case of `COc1cc(NC(=O)c2cccs2)c(OC)cc1NC(=O)CCC(=O)Nc1ccc2ncccc2c1`, the “activity change, negative = inhibition” value is reported as inactive: -4.85%.
In the case of `CC(C)C[C@H](N)c1cn([C@@H](CCCCN)C(=O)N2CCNCC2)nn1`, the Potency is reported as inconclusive [inhibitor, full curve].
With `CCOc1ccc(CCNC(=O)CN2C(=O)COc3ccc(S(=O)(=O)N4CCOCC4)cc32)cc1` the Potency was inconclusive [inhibitor, partial curve].
With `CSCCC(NS(=O)(=O)c1ccc(C)cc1)C(=O)N1CCN(C(c2ccccc2)c2ccccc2)CC1` (centres undefined) the Potency was inconclusive [inhibitor, single point].
With `CC(/C=N/NC(=O)c1cc(-c2ccc3ccccc3c2)n[nH]1)=C\c1ccco1` the Potency was inconclusive [inhibitor, partial curve].
In the case of `O=C(NP(=O)(N1CCCC1)N1CCCC1)C1=C(N2CCOCC2)/C(=C/c2cccc([N+](=O)[O-])c2)CC1`, the “activity change, negative = inhibition” value is reported as inactive: 3.33%.
With `O=C(N1CCC(n2nc(-c3ccccc3)oc2=O)CC1)C1(c2ccccc2)CC1` the Potency was inconclusive [inhibitor, single point].
For `CCn1cc(C2=NC(CCSC)CO2)c2ccccc21` (centres undefined), the Potency was inconclusive [inhibitor, partial curve].
In the case of `Cc1ccc(N(C(=O)CCC(=O)Nc2cc(C)on2)C(C(=O)NC2CCCC2)c2ccccc2)cc1` (centres undefined), the Potency is reported as inconclusive [inhibitor, single point].
In the case of `CC(C)(C)OC(=O)NCCCCCc1nnc(SCc2ccccc2)o1`, the Potency is reported as inconclusive [inhibitor, single point].
In the case of `O=C(COC(=O)c1cccnc1Cl)NCc1ccc2c(c1)OCO2`, the “activity change, negative = inhibition” value is reported as inactive: -4%.
In the case of `Cc1cc(NC(=O)CCC(=O)N(Cc2cccs2)C(C(=O)NC2CCCC2)c2ccncc2)no1` (centres undefined), the “activity change, negative = inhibition” value is reported as inactive: -9.01%.
With `FC(F)(F)c1cccc(CNC2c3ccccc3-c3ccccc32)c1` the “activity change, negative = inhibition” value was inactive: 26.4%.
In the case of `COc1ccc(/C=N/NC(=O)c2ccccc2[N+](=O)[O-])cc1CN1CCc2cc(OC)c(OC)cc2C1C` (centres undefined), the Potency is reported as inconclusive [inhibitor, partial curve].
In the case of `CCOC(=O)N1CCC(NC(=O)CCc2c(C)nc3c(c(C)nn3C(C)(C)C)c2C)CC1`, the Potency is reported as active: 5.62 µM.
For `NNC(=O)c1ccc(COCC(F)(F)F)cc1`, the “activity change, negative = inhibition” value was inactive: 2.2%.
For `COC(=O)CC1COc2ccccc2N1C(=O)c1ccc(C(C)(C)C)cc1` (centres undefined), the Potency was inconclusive [inhibitor, single point].
For `COc1cccc(C2C=C(c3ccc(OC)cc3OC)Nc3nnnn32)c1` (centres undefined), the Potency was inconclusive [inhibitor, partial curve, poor fit].
For `COC(=O)c1ccc(CSc2nc3ccccc3c(=O)n2-c2ccccc2)o1`, the Potency was inconclusive [inhibitor, partial curve, poor fit].
In the case of `O=C1/C(=C\c2ccc(Br)o2)SC(=Nc2ccccc2)N1c1ccccc1`, the Potency is reported as inconclusive [inhibitor, single point].
For `O=C(N/N=C/c1ccc(Sc2ccccn2)o1)c1cccc([N+](=O)[O-])c1`, the “activity change, negative = inhibition” value was inactive: -5.2%.
For `Cc1cc(C)n(C(=O)c2ccc(Cl)c(F)c2F)n1`, the “activity change, negative = inhibition” value was inactive: 1.28%.
For `O=C(c1cccs1)N(CC1CCCO1)c1nc(-c2ccccc2)cs1` (centres undefined), the Potency was inconclusive [inhibitor, partial curve].
With `COC(=O)C(C)Oc1cc(C)cc2oc(=O)c3c(c12)CCCC3` (centres undefined) the Potency was inconclusive [inhibitor, full curve].
For `COCCn1nnnc1C(c1cccs1)N1CCN2CCCC2C1` (centres undefined), the “activity change, negative = inhibition” value was inactive: 7.58%.
With `COc1ccc(-n2c3c(cc(C(=O)N4CCC(C)CC4)c2=O)C(=O)CC(C)(C)C3)cc1` the “activity change, negative = inhibition” value was inactive: 6.75%.
With `CCN1CCN(c2ccc(S(=O)(=O)N3CCOCC3)cc2NC(=O)/C=C/c2ccc([N+](=O)[O-])cc2)CC1` the Potency was active: 25.1 µM.
In the case of `O=C(CSc1nc2cc(Cl)ccc2s1)N1CCN(C(=O)c2ccco2)CC1`, the Potency is reported as inconclusive [inhibitor, partial curve].
In the case of `O=[N+]([O-])c1cccnc1Sc1ccc(F)cc1`, the “activity change, negative = inhibition” value is reported as inactive: 13.9%.
With `Cn1cc(CCNC(=O)c2ccc3nc(Cc4ccccc4F)oc3c2)cn1` the “activity change, negative = inhibition” value was inactive: -7.54%.
With `Cc1cccc(C(=O)N[C@H](C(=O)NCc2cccs2)C(C)C)c1` the Potency was inconclusive [inhibitor, single point].
In the case of `CCCCN(C)CCC(=O)Nc1ccc(Cl)cc1`, the Potency is reported as inconclusive [inhibitor, single point].
In the case of `Cc1ccc(N(CC(=O)NC2CCCCC2)S(=O)(=O)c2cccs2)cc1`, the Potency is reported as inconclusive [inhibitor, single point].
For `C[C@@H]1CC=C[C@H]2[C@H]1C(=O)N(Cc1ccccc1)[C@H]2c1cccc([N+](=O)[O-])c1`, the Potency was inconclusive [inhibitor, full curve, poor fit].
In the case of `Cc1ccc(OCC(=O)Nc2cccc(-c3nnc(-c4ccccc4)o3)c2)c(C)c1`, the Potency is reported as inconclusive [inhibitor, single point].
In the case of `O=C(Nc1ccc(Cl)c(Cl)c1)Nc1ccon1`, the Potency is reported as inconclusive [inhibitor, partial curve].
For `CCOc1ccc(CN(C)C(=O)[C@H](Cc2ccccc2)NC(=O)OCc2ccccc2)cc1OC`, the Potency was inconclusive [inhibitor, single point].

From PubChem BioAssay AID651820 (National Center for Advancing Translational Sciences (NCATS), 2012)
On the % scale 0 is the no-effect control and ±100 the full control effect; potency means the concentration at half of the fitted maximal effect; tags describe the fitted curve by direction and shape.
